# PubChem BioAssay AID1460 (National Center for Advancing Translational Sciences (NCATS), 2008)
# Screen size: about 270,000 compounds; about 5,800 (2.1%) were called active. The shares of active, inactive and inconclusive entries below differ from those in the screen. Calls follow the shape of the dose curve; as a rule, active = well fitted inhibition curve with a large enough effect; inconclusive = small, poorly fitted or top-dose-only effect; inactive = flat fitted curve, though single readings scatter. A potency beside an inconclusive call is a rough fit, not a confirmed value.
# Target: Microtubule-associated protein tau (Homo sapiens) (UniProt P10636)
# Chain of UniProt P10636 (P10636 whole entry, looked up): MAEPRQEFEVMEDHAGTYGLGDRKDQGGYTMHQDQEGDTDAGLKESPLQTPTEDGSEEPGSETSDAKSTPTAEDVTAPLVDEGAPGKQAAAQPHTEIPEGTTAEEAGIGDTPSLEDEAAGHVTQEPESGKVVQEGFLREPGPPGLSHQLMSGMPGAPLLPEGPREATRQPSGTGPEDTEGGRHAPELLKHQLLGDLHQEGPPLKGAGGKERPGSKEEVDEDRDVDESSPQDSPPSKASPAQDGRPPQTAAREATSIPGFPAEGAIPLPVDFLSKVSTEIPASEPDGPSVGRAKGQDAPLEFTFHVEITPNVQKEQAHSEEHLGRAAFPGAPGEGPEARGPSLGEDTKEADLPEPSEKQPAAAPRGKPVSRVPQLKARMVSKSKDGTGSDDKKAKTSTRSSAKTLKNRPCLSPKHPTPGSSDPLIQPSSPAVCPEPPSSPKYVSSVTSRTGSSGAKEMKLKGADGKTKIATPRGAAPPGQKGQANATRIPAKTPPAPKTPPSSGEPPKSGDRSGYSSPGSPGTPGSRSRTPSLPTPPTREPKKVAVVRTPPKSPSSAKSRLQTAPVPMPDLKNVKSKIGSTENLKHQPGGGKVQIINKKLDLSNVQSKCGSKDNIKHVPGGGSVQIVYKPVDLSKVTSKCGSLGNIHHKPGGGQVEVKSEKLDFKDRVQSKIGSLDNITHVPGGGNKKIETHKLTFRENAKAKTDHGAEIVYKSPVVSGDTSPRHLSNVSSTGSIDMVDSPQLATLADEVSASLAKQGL
# Assay: qHTS for Inhibitors of Tau Fibril Formation, Thioflavin T Binding; also: nearly all actives have a fitted effect of over 55% in size
# Details: recombinant tau K18 P301L (four-repeat tau fragment), heparin-induced fibrillization, ThT fluorescence; series mostly up to 57.4 µM
# How it was run: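 Aggregation was driven by heparin (20 uM final) acting on recombinant tau […] bearing P301L in 100 mM sodium acetate pH 7; fibrils were detected with Thioflavin T.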
# Potency is read from the fitted curve at half-maximal effect; tags tell the direction and shape of the fitted curve.
row,SMILES,Potency
1,COc1ccc(N2CCN(C(=S)NC(=O)c3cccs3)CC2)c([N+](=O)[O-])c1,"inconclusive: 15.8 µM [inhibitor, partial curve]"
2,C/C(N)=C(/C#N)C(=O)CSc1nnc(COc2ccccc2Cl)o1,"inconclusive: 31.6 µM [inhibitor, partial curve, poor fit]"
3,COc1ccccc1Nc1c2c(nc3ccc(NC(=O)c4cccc(F)c4)cc13)CCCC2,"inconclusive: 17.8 µM [inhibitor, partial curve]"
4,CC(=Nc1ccccc1O)c1sc2ccccc2c1O,active: 5.01 µM
5,C/C(CC(=O)NCc1ccccc1)=N\NC(=O)c1cnccn1,inactive
6,O=c1[nH]c(NCCO)nc2c1C1(CCCCC1)Cc1ccccc1-2,inactive
7,CCc1ccc(CNC(=O)C2CCN(C(=O)N3CC(CC)Oc4ccc(C)cc43)CC2)cc1 (stereo not given),inactive
8,CCOc1nc(NCCN2CCOCC2)nc(Nc2ccc([N+](=O)[O-])cc2)n1,"inconclusive: 44.7 µM [inhibitor, single point]"
9,CCOC(=O)c1nnc(-c2ccc(C)cc2)nc1Oc1ccccc1Cl,"inconclusive: 14.1 µM [inhibitor, partial curve]"
10,COc1ccc(-n2c(O)c(/C=N/Nc3nc(C)cc(C)n3)c3ccccc3c2=O)cc1OC,"inconclusive: 31.6 µM [inhibitor, single point]"
11,O=C(c1cc(-c2ccccc2)on1)N1CCN(Cc2ccc3c(c2)OCO3)CC1,"inconclusive: 2.51 µM [inhibitor, partial curve]"
12,COc1ccc(C2=NN(c3ccccc3)C(c3cn(CCC(=O)O)nc3-c3ccccc3)C2)cc1 (stereo not given),"inconclusive: 17.8 µM [inhibitor, partial curve]"
13,C=CCNC(=O)/C(=C/c1ccco1)NC(=O)c1ccc(Br)o1,"inconclusive: 25.1 µM [inhibitor, single point]"
14,CCOC(=O)c1cnc2c(C(F)(F)F)cccc2c1Nc1cccc(C(=O)OC)c1,"inconclusive: 15.8 µM [inhibitor, partial curve]"
15,Cc1cc(C(=O)N/N=C/c2cccc(Cl)c2Cl)no1,"inconclusive: 22.4 µM [inhibitor, partial curve]"
16,N#Cc1c(SCC(=O)O)nc(N2CCCCC2)c2c1CCCC2,inactive
17,COc1ccc(CCNC(=O)Cn2cc(S(=O)(=O)Cc3cccc(Cl)c3)c3ccccc32)cc1OC,"inconclusive: 39.8 µM [inhibitor, single point]"
18,COc1ccc(-c2noc(CSc3nnc(-c4ccc(Cl)cc4)n3C)n2)cc1OC,"inconclusive: 8.91 µM [inhibitor, partial curve]"
19,O=C(c1cc(-c2cccnc2)nc2ccc(Br)cc12)N1CCN(c2ncccn2)CC1,inactive
20,COc1ccc(C2OC(=O)CC2C(=O)NC(C)C)cc1 (stereo not given),"inconclusive: 31.6 µM [inhibitor, partial curve]"
21,O=C(CN1CCN(c2ccc(F)cc2)CC1)c1cccs1,"inconclusive: 28.2 µM [inhibitor, single point]"
22,Oc1ccc(C=NC2CCCCC2)c(O)c1,"inconclusive: 39.8 µM [inhibitor, single point]"
23,COc1cccc(C(=O)Nc2ccc(NC(=O)c3ccc(C(C)(C)C)cc3)cc2)c1,inactive
24,COC(=O)C(CCSC)NC(=O)c1cc2c(n(-c3ccc(OC)cc3)c1=O)CC(C)(C)CC2=O (stereo not given),inactive

row,SMILES,Potency
1,COc1cc(OC)c(NC(=O)c2c3c(nn2C)-c2ccccc2SC3)cc1Cl,"inconclusive: 1.41 µM [inhibitor, full curve]"
2,Cc1ccc(Cl)cc1N1CCN(Cc2nc3ccsc3c(=O)[nH]2)CC1,inactive
3,CCOC(=O)Cn1c(=O)n(Cc2ccco2)c(=O)c2ccc(C(=O)NCCc3ccccc3)cc21,"inconclusive: 12.6 µM [inhibitor, partial curve, poor fit]"
4,Cc1cccc(/N=C/c2sc3ccccc3c2O)n1,active: 5.62 µM
5,O=C(N=Nc1c(O)[nH]c2ccccc12)c1ccc2c(c1)OCO2,"inconclusive: 1.12 µM [inhibitor, full curve]"
6,CCCOc1cc(CN2CCCCC2)cc(C(C)=O)c1,inactive
7,CCc1ccccc1Nc1nn2c(=O)c3ccc(C(=O)NC4CCCCC4)cc3nc2s1,inactive
8,COc1ccc(OCCn2c(=O)sc3ccccc32)cc1,inactive
9,COc1ccc(CCNC(=O)CCCn2nc(C)c3sc4ccccc4c3c2=O)cc1OC,"inconclusive: 25.1 µM [activator, partial curve]"
10,O=C(NNS(=O)(=O)c1ccc2ccccc2c1)c1cc(-c2ccccn2)nc2ccccc12,inactive
11,CCOc1cccc(-c2nc3cc(C)ccc3o2)c1,"inconclusive: 14.1 µM [inhibitor, partial curve]"
12,O=C(O)CCCN1C(=O)/C(=C/c2ccc(-c3nc4ccccc4s3)o2)SC1=S,active: 1.58 µM
13,COc1ccc(CNc2ccc(C(=O)O)cc2)cc1,inactive
14,Cc1nn(-c2ccccc2)c2sc(C(=O)Nc3cccc(O)c3)cc12,"inconclusive: 25.1 µM [activator, single point]"
15,CN(C)c1ccc(C(c2nnnn2C(C)(C)C)N2CCc3ccccc3C2)cc1 (stereo not given),"inconclusive: 1.78 µM [inhibitor, full curve]"
16,COCCCN=C(c1ccco1)n1c(=S)nc(-c2ccco2)n(CCCOC)c1=S,active: 31.6 µM
17,COC(=O)/C(=C/Nc1cccc2ccccc12)[N+](=O)[O-],"inconclusive: 39.8 µM [inhibitor, single point]"
18,O=C(C/C=N/OCc1ccc(Cl)cc1Cl)c1ccc(Cl)cc1,"inconclusive: 15.8 µM [inhibitor, single point]"
19,CCN(c1ccccc1)S(=O)(=O)c1nnc(NC(=O)c2ccco2)s1,"inconclusive: 2.51 µM [inhibitor, full curve]"
20,CCOCCCNC(=S)NCCc1ccccc1,inactive
21,O=C(Nc1ccccc1C(=O)OCC(=O)c1c[nH]c2ccccc12)c1ccco1,inactive
22,CCOC(=O)CCS(=O)(=O)c1nc(-c2ccccc2)cc(C(F)(F)F)n1,inactive
23,C/C=C/c1ccc(OCCCNC2CCCC2)c(OC)c1,inactive
24,CCn1c(-c2cc(-c3ccccc3OC)nc3ccccc23)n[nH]c1=S,inactive

row,SMILES,Potency
1,COC(=O)/C=C(\C)N=Nc1c(O)[nH]c2ccccc12,active: 11.2 µM
2,Cc1ccc(C(=O)CCNc2cccc(Br)c2)o1,inactive
3,COc1ccc(NN=Nc2nc3c([nH]2)c(=O)n(C)c(=O)n3C)cc1,active: 25.1 µM
4,Fc1ccc(N2CCN(c3nc(CN4CCOCC4)nc4scc(-c5ccccc5)c34)CC2)cc1,"inconclusive: 20 µM [inhibitor, single point]"
5,N=c1c(C(=O)NCc2ccccc2)cc2c(=O)n3ccccc3nc2n1Cc1ccco1,"inconclusive: 22.4 µM [inhibitor, partial curve]"
6,COc1cc(C2CC(=O)Nc3c2c(C)nn3-c2nncc(-c3ccccc3)n2)cc(OC)c1OC (stereo not given),"inconclusive: 44.7 µM [inhibitor, single point]"
7,O=C(NCCn1cc(SCc2ccccc2)c2ccccc21)c1ccccc1F,"inconclusive: 25.1 µM [inhibitor, partial curve]"
8,O=C(CSc1nc(-c2cccs2)nc2cc(=O)[nH]n12)Nc1ccccc1Cl,"inconclusive: 14.1 µM [inhibitor, partial curve]"
9,Cc1cccc(-c2nc(CSCC(=O)N3CCN(c4cccc(C)c4C)CC3)c(C)o2)c1,"inconclusive: 39.8 µM [inhibitor, single point]"
10,CCc1ccc2c(c1)NC(c1cccnc1)=NC(c1ccc(C(C)(C)C)cc1)=N2,"inconclusive: 25.1 µM [inhibitor, partial curve]"
11,Cc1ccc(C)c(N2CCN(S(=O)(=O)c3cc(C(=O)Nc4cc(Cl)cc(Cl)c4)ccc3F)CC2)c1,inactive
12,COc1cccc(-c2nc(=S)c3c(n2Cc2ccco2)CCCC3)c1,"inconclusive: 22.4 µM [inhibitor, partial curve]"
13,Cc1[nH]n(-c2ccccc2)c(=O)c1/C=N/NC(=O)c1cccc([N+](=O)[O-])c1,"inconclusive: 2.51 µM [inhibitor, full curve, poor fit]"
14,COC(=O)c1cc(NS(=O)(=O)c2ccc(N3CCOCC3)c([N+](=O)[O-])c2)cc(C(=O)OC)c1,"inconclusive: 28.2 µM [inhibitor, single point]"
15,COCc1cc(=O)[nH]c(Nc2nc(C)c3ccccc3n2)n1,"inconclusive: 3.16 µM [inhibitor, full curve]"
16,CC(=O)N1N=C(c2ccc(C)cc2)CC1c1cn(-c2ccccc2)nc1-c1cccs1 (stereo not given),"inconclusive: 10 µM [inhibitor, partial curve, poor fit]"
17,CSc1ccc(CCNC(=O)c2ccc(-n3c(C)cc4c3CCCC4)cc2)cc1,"inconclusive: 14.1 µM [inhibitor, partial curve]"
18,COc1ccccc1N=NC1=C(O)CC(C)(C)CC1=O,"inconclusive: 31.6 µM [inhibitor, single point]"
19,CCCc1nc(NC(C)=O)c(C#N)c(-c2ccco2)c1CC,"inconclusive: 44.7 µM [inhibitor, single point]"
20,COc1ccc2c(c1)c(C(=O)N/N=C/c1cn(C)c3ccccc13)c(C)n2C,"inconclusive: 5.01 µM [inhibitor, partial curve]"
21,COCCn1c(SCC(=O)Nc2ccc(OC)c(S(N)(=O)=O)c2)nc2ccccc21,inactive
22,CNc1nn(-c2cccc(Cl)c2)nc1N,"inconclusive: 14.1 µM [inhibitor, partial curve]"
